Test [1] deals with T1, wild type (WT) FLAG epitope-tagged version of PP2A Aβ (UniProt P30154 1-601).
T1 construct: also called wtPP2A Aβ; FLAG-tagged Aβ
Description: anti-FLAG co-IP from HEK TER cells, immunoblot. (In general: Immunoblotting shows a protein as a band on a membrane.)

Test [2] has as its target T2, cancer-derived FLAG-tagged PP2A Aβ mutant ΔE344-E388 (Homo sapiens (Human), UniProt P30154 2-601).
T2 construct: Deletion of exon 9, in-frame deletion of 45 amino acids; Overexpressed in HEK TER cells; also called D344-388
Description: anti-FLAG co-IP from HEK TER cells, immunoblot, densitometry.

Test [3] concerns the target T3, cancer-derived FLAG-tagged PP2A Aβ mutant L101P/V448A (UniProt P30154 1-601).
T3 construct: Overexpressed in HEK TER cells
The test is described as above.

Test [4] has as its target T4, cancer-derived FLAG-tagged PP2A Aβ mutant L101P (UniProt P30154 1-601).
T4 construct: Overexpressed in HEK TER cells
The test is described as above.

The target of test [5] is T5, cancer-derived FLAG-tagged PP2A Aβ mutant V448A (UniProt P30154 1-601).
T5 construct: Overexpressed in HEK TER cells
Described as above.

B1: PP2A regulatory subunit B56α (other, UniProt Q15172 2-486, looked up)
chain: SSSSPPAGAASAAISASEKVDGFTRKSVRKAQRQKRSQGSSQFRSQGSQAELHPLPQLKDATSNEQQELFCQKLQQCCILFDFMDSVSDLKSKEIKRATLNELVEYVSTNRGVIVESAYSDIVKMISANIFRTLPPSDNPDFDPEEDEPTLEASWPHIQLVYEFFLRFLESPDFQPSIAKRYIDQKFVQQLLELFDSEDPRERDFLKTVLHRIYGKFLGLRAFIRKQINNIFLRFIYETEHFNGVAELLEILGSIINGFALPLKAEHKQFLMKVLIPMHTAKGLALFHAQLAYCVVQFLEKDTTLTEPVIRGLLKFWPKTCSQKEVMFLGEIEEILDVIEPTQFKKIEEPLFKQISKCVSSSHFQVAERALYFWNNEYILSLIEENIDKILPIMFASLYKISKEHWNPTIVALVYNVLKTLMEMNGKLFDDLTSSYKAERQREKKKELEREELWKKLEELKLKKALEKQNSAYNMHSILSNTSAE
notes: Endogenous protein found in anti-FLAG immune complexes by immunoblot
With B1, the binding result is “binds” in test [1]; “no binding” in test [2]; “no binding” in test [3]; “no binding” in test [4]; “no binding” in test [5].

B2: PP2A regulatory subunit B56ε (other)
chain: SSAPTTPPSVDKVDGFSRKSVRKARQKRSQSSSQFRSQGKPIELTPLPLLKDVPSSEQPELFLKKLQQCCVIFDFMDTLSDLKMKEYKRSTLNELVDYITISRGCLTEQTYPEVVRMVSCNIFRTLPPSDSNEFDPEEDEPTLEASWPHLQLVYEFFIRFLESQEFQPSIAKKYIDQKFVLQLLELFDSEDPRERDYLKTVLHRIYGKFLGLRAFIRKQINNIFLRFVYETEHFNGVAELLEILGSIINGFALPLKAEHKQFLVKVLIPLHTVRSLSLFHAQLAYCIVQFLEKDPSLTEPVIRGLMKFWPKTCSQKEVMFLGELEEILDVIEPSQFVKIQEPLFKQIAKCVSSPHFQVAERALYYWNNEYIMSLIEENSNVILPIMFSSLYRISKEHWNPAIVALVYNVLKAFMEMNSTMFDELTATYKSDRQREKKKEKEREELWKKLEDLELKRGLRRDGIIPT
notes: as for B1
Regarding B2, the figures for the binding result in test [1] and in test [2] were “binds” and “no binding”, respectively.

The record behind these values is patent US20110306057A1 (Dana-Farber, published 2011).
